The campaign covered roughly 360,000 compounds. About 2,600 (0.72%) were called active. This list was built around the results that the source calls inconclusive (neither active nor inactive); the mix of calls is not that of the screen. The call rests on the fitted dose curve; in most records, active means well fitted inhibition curve with a large enough effect; inconclusive means small, poorly fitted or top-dose-only effect; inactive means no such curve, though single readings can be large or run the other way. Where the call is inconclusive, the potency comes from a doubtful curve fit.
assay: Primary qHTS for Inhibitors of ATXN expression; conditions: HEK-293 ATXN2-luciferase reporter, luminescence, 24 h; activity change, negative = inhibition: at 57 µM (top of the series); further: nearly all actives have a fitted effect of over 55% in size
Procedure, shortened: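 qHTS (up to 57 uM final) was run with 24 h compound exposure of reporter cells at 37 °C. Each well was multiplexed: SteadyGlo luminescence measured ATXN2-luciferase expression after a fluorogenic Gly-Phe-AFC viability readout (25 uM final).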
On the % scale 0 is the no-effect control and ±100 the full control effect; potency means the concentration at half of the fitted maximal effect; tags describe the fitted curve by direction and shape.

Activity change, negative = inhibition, inactive:
C/C(O)=C(/C#N)c1nc2ccccc2[nH]1 2.86%
COc1ccc([C@H]2[C@@H]3C=CCC[C@@]3(C)C(=O)N2Cc2ccccc2)cc1Cl -30.9%
CCC(Nc1ccc(-c2nc(-c3ccccn3)no2)cc1[N+](=O)[O-])c1ccccc1 (configuration not stated) 72.5%
CCn1c(=O)c([N+](=O)[O-])c(Cl)c2ccccc21 -5.34% [at 11.3 µM]

Potency, active:
COc1cc2nccc(Oc3ccc(NC(=O)C4(C(=O)Nc5ccc(F)cc5)CC4)cc3)c2cc1OC 19.3 µM

Potency, inconclusive:
O=C(NCC1CCCCC1)C1(CC2CC(c3cccc(Br)c3)=NO2)CCNCC1 (configuration not stated) 17.8 µM [inhibitor, partial curve, poor fit]
COc1ccc(CC(=O)Nc2ccc(S(=O)(=O)N3CCCCC3)cc2)cc1OC 15.8 µM [inhibitor, partial curve, poor fit]
CC(=O)n1cc([C@@H]2C=C(C(=O)Nc3ccccc3)O[C@H](OCc3ccc(CO)cc3)C2)c2ccccc21 17.8 µM [inhibitor, partial curve, poor fit]
COc1ccc(Cc2nc3ccccc3n2CC(=O)N/N=C/c2ccc(C)cc2O)cc1OC 6.31 µM [inhibitor, partial curve, poor fit]
Cc1nn(C)c(C)c1CNC(=O)c1nn2c(c1Cl)NC(c1cccs1)CC2C(F)(F)F (configuration not stated) 35.5 µM [inhibitor, single point]
Cc1ccccc1C(=O)N1CCC(C(=O)Nc2ccc(S(=O)(=O)N(C)C(C)C)cc2)CC1 20 µM [inhibitor, partial curve, poor fit]
Cc1cccc2cc3c(N)c(C#N)sc3nc12 39.8 µM [inhibitor, single point]
C=CCn1c(=O)c2ccc(C(=O)NCc3ccccc3)cc2n(Cc2cccc(Cl)c2)c1=O 31.6 µM [inhibitor, partial curve, poor fit]
Cc1ccc(OC(C)C(=O)N=Nc2c(O)[nH]c3ccc([N+](=O)[O-])cc23)cc1 (configuration not stated) 28.2 µM [inhibitor, single point]
O=C(Nc1ccc(Br)c(C(F)(F)F)c1)c1ccc(C(F)(F)F)cc1 35.5 µM [inhibitor, single point]
Cc1cc(C)c(C#N)c(SCc2ccc([N+](=O)[O-])cc2)n1 6.7 µM [inhibitor, partial curve, poor fit]
CCCc1cc(C(=O)Nc2ccc(C(=O)c3ccc(C)cc3)cc2)n(C)n1 22.4 µM [inhibitor, single point]
